± gives the standard error. Variants at the floor of the assay are shown more often than the library holds them.
B1: glmS ribozyme (parent)
chain: AUAAAAGCGCCAGAACUACAGAAAUGUAGUUGACGAGGAGGAGGUUUAUCGAAUUUUCGGCGGAUGCCUCCAAA

What was measured:
Conditions in all cases: with glucosamine-6-phosphate
glucosamine-6-phosphate [1] = variants of: B1; assay: self-cleavage kobs at 40 uM GlcN6P; higher = faster cleavage; RNA array
How it was run: (§1)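 Glucosamine-6-phosphate in HEPES/KCl/Mg(OAc)2 buffer, at 40 μM to 10 mM, was flowed over barcoded ribozyme variants transcribed in situ by E. coli RNA polymerase on sequenced MiSeq chips. Tracking was through a hybridised Cy3 probe at 37 °C. kobs, kcat and KM came from exponential decay fits and weighted Michaelis–Menten fits of normalised per-tile medians.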

glucosamine-6-phosphate [2] = variants of: B1; assay: self-cleavage kobs at 160 uM GlcN6P; higher = faster cleavage; RNA array
How it was run: as §1

glucosamine-6-phosphate [3] = variants of: B1; assay: self-cleavage kobs at 640 uM GlcN6P; higher = faster cleavage; RNA array
How it was run: as §1

glucosamine-6-phosphate [4] = variants of: B1; assay: self-cleavage kobs at 2500 uM GlcN6P; higher = faster cleavage; RNA array
How it was run: as §1

glucosamine-6-phosphate [5] = variants of: B1; assay: self-cleavage kobs at 10000 uM GlcN6P; higher = faster cleavage; RNA array
How it was run: as §1

Variant | self-cleavage kobs at 40 uM GlcN6P (glucosamine-6-phosphate [1]) | self-cleavage kobs at 160 uM GlcN6P (glucosamine-6-phosphate [2]) | self-cleavage kobs at 640 uM GlcN6P (glucosamine-6-phosphate [3]) | self-cleavage kobs at 2500 uM GlcN6P (glucosamine-6-phosphate [4]) | self-cleavage kobs at 10000 uM GlcN6P (glucosamine-6-phosphate [5])
G9A U55A | < 1e-05 s⁻¹ | < 1e-05 s⁻¹ | – | – | –
G9A U56A | < 1e-05 s⁻¹ | – | < 1e-05 s⁻¹ | < 1e-05 s⁻¹ | –
G9A U57G C67U | < 1e-05 s⁻¹ | – | – | – | < 1e-05 s⁻¹
G9C A14C | < 1e-05 s⁻¹ | < 1e-05 s⁻¹ | – | – | –
G9C A14G A39G C67U | < 1e-05 s⁻¹ | < 1e-05 s⁻¹ | < 1e-05 s⁻¹ | < 1e-05 s⁻¹ | –
G9C A14U | < 1e-05 s⁻¹ | < 1e-05 s⁻¹ | < 1e-05 s⁻¹ | < 1e-05 s⁻¹ | < 1e-05 s⁻¹
G9C A15C | < 1e-05 s⁻¹ | < 1e-05 s⁻¹ | – | – | < 1e-05 s⁻¹
G9C A52C | < 1e-05 s⁻¹ | < 1e-05 s⁻¹ | < 1e-05 s⁻¹ | < 1e-05 s⁻¹ | –
G9C C10U | < 1e-05 s⁻¹ | < 1e-05 s⁻¹ | < 1e-05 s⁻¹ | < 1e-05 s⁻¹ | < 1e-05 s⁻¹
G9C C50A | < 1e-05 s⁻¹ | – | < 1e-05 s⁻¹ | < 1e-05 s⁻¹ | < 1e-05 s⁻¹
G9C C58A | < 1e-05 s⁻¹ | < 1e-05 s⁻¹ | < 1e-05 s⁻¹ | – | < 1e-05 s⁻¹
G9C C67G | < 1e-05 s⁻¹ | < 1e-05 s⁻¹ | < 1e-05 s⁻¹ | < 1e-05 s⁻¹ | < 1e-05 s⁻¹
G9C C68A | < 1e-05 s⁻¹ | < 1e-05 s⁻¹ | < 1e-05 s⁻¹ | – | < 1e-05 s⁻¹
G9C C71A | < 1e-05 s⁻¹ | – | – | – | < 1e-05 s⁻¹
G9C G13C | < 1e-05 s⁻¹ | < 1e-05 s⁻¹ | < 1e-05 s⁻¹ | < 1e-05 s⁻¹ | < 1e-05 s⁻¹
G9C G13U | < 1e-05 s⁻¹ | – | – | – | –
G9C G13U G41U G63U | < 1e-05 s⁻¹ | – | – | – | < 1e-05 s⁻¹
G9C G29C | < 1e-05 s⁻¹ | < 1e-05 s⁻¹ | – | < 1e-05 s⁻¹ | < 1e-05 s⁻¹
G9C G29U | < 1e-05 s⁻¹ | < 1e-05 s⁻¹ | < 1e-05 s⁻¹ | – | –
G9C G40A C50A | < 1e-05 s⁻¹ | – | – | – | –
G9C G43U | < 1e-05 s⁻¹ | < 1e-05 s⁻¹ | < 1e-05 s⁻¹ | – | < 1e-05 s⁻¹

Variant | self-cleavage kobs at 40 uM GlcN6P (glucosamine-6-phosphate [1]) | self-cleavage kobs at 160 uM GlcN6P (glucosamine-6-phosphate [2]) | self-cleavage kobs at 640 uM GlcN6P (glucosamine-6-phosphate [3]) | self-cleavage kobs at 2500 uM GlcN6P (glucosamine-6-phosphate [4]) | self-cleavage kobs at 10000 uM GlcN6P (glucosamine-6-phosphate [5])
G9C G51A | < 1e-05 s⁻¹ | – | – | – | < 1e-05 s⁻¹
G9C G62U | < 1e-05 s⁻¹ | < 1e-05 s⁻¹ | < 1e-05 s⁻¹ | – | < 1e-05 s⁻¹
G9C G63A C70A | < 1e-05 s⁻¹ | < 1e-05 s⁻¹ | < 1e-05 s⁻¹ | < 1e-05 s⁻¹ | < 1e-05 s⁻¹
G9C U30C | < 1e-05 s⁻¹ | < 1e-05 s⁻¹ | < 1e-05 s⁻¹ | – | < 1e-05 s⁻¹
G9C U30G G41C U47G U65G | < 1e-05 s⁻¹ | – | – | – | < 1e-05 s⁻¹
G9C U31C G41U U47A | < 1e-05 s⁻¹ | < 1e-05 s⁻¹ | < 1e-05 s⁻¹ | – | < 1e-05 s⁻¹
G9C U31G U54C | < 1e-05 s⁻¹ | – | – | – | –
G9C U46A | < 1e-05 s⁻¹ | < 1e-05 s⁻¹ | < 1e-05 s⁻¹ | – | < 1e-05 s⁻¹
G9C U46A G51A | < 1e-05 s⁻¹ | – | – | – | –
G9C U55C | < 1e-05 s⁻¹ | – | < 1e-05 s⁻¹ | – | –
G9C U57C | < 1e-05 s⁻¹ | < 1e-05 s⁻¹ | < 1e-05 s⁻¹ | < 1e-05 s⁻¹ | < 1e-05 s⁻¹
G9C U65G | < 1e-05 s⁻¹ | < 1e-05 s⁻¹ | < 1e-05 s⁻¹ | < 1e-05 s⁻¹ | < 1e-05 s⁻¹
G9U A12C A36U U57A C68A | < 1e-05 s⁻¹ | – | < 1e-05 s⁻¹ | < 1e-05 s⁻¹ | < 1e-05 s⁻¹
G9U A12U | < 1e-05 s⁻¹ | < 1e-05 s⁻¹ | < 1e-05 s⁻¹ | < 1e-05 s⁻¹ | –
G9U A14G G59C C68U | < 1e-05 s⁻¹ | – | – | – | < 1e-05 s⁻¹
G9U A15U G41A C61G | < 1e-05 s⁻¹ | – | – | – | < 1e-05 s⁻¹
G9U A15U U65G | < 1e-05 s⁻¹ | – | < 1e-05 s⁻¹ | – | < 1e-05 s⁻¹
G9U A33G C34A C68U C70A | < 1e-05 s⁻¹ | – | – | – | < 1e-05 s⁻¹
G9U A33G G43U | < 1e-05 s⁻¹ | – | – | – | < 1e-05 s⁻¹
G9U A42U | < 1e-05 s⁻¹ | < 1e-05 s⁻¹ | < 1e-05 s⁻¹ | < 1e-05 s⁻¹ | –
G9U A64C | < 1e-05 s⁻¹ | < 1e-05 s⁻¹ | < 1e-05 s⁻¹ | – | < 1e-05 s⁻¹

Variant | self-cleavage kobs at 40 uM GlcN6P (glucosamine-6-phosphate [1]) | self-cleavage kobs at 160 uM GlcN6P (glucosamine-6-phosphate [2]) | self-cleavage kobs at 640 uM GlcN6P (glucosamine-6-phosphate [3]) | self-cleavage kobs at 2500 uM GlcN6P (glucosamine-6-phosphate [4]) | self-cleavage kobs at 10000 uM GlcN6P (glucosamine-6-phosphate [5])
G9U C10U | < 1e-05 s⁻¹ | < 1e-05 s⁻¹ | < 1e-05 s⁻¹ | – | < 1e-05 s⁻¹
G9U C10U C11U G32A | < 1e-05 s⁻¹ | – | – | – | < 1e-05 s⁻¹
G9U C16A U54G | < 1e-05 s⁻¹ | – | < 1e-05 s⁻¹ | < 1e-05 s⁻¹ | < 1e-05 s⁻¹
G9U C16U G43U A53U | < 1e-05 s⁻¹ | – | – | – | < 1e-05 s⁻¹
G9U C68U | < 1e-05 s⁻¹ | < 1e-05 s⁻¹ | < 1e-05 s⁻¹ | < 1e-05 s⁻¹ | < 1e-05 s⁻¹
G9U C71A | < 1e-05 s⁻¹ | < 1e-05 s⁻¹ | < 1e-05 s⁻¹ | < 1e-05 s⁻¹ | < 1e-05 s⁻¹
G9U C71G | < 1e-05 s⁻¹ | < 1e-05 s⁻¹ | < 1e-05 s⁻¹ | < 1e-05 s⁻¹ | –
G9U G13A C16A G38U | < 1e-05 s⁻¹ | – | – | – | –
G9U G13C | < 1e-05 s⁻¹ | < 1e-05 s⁻¹ | < 1e-05 s⁻¹ | – | < 1e-05 s⁻¹
G9U G29A A36C | < 1e-05 s⁻¹ | – | – | – | –
G9U G29C U30C | < 1e-05 s⁻¹ | < 1e-05 s⁻¹ | < 1e-05 s⁻¹ | < 1e-05 s⁻¹ | < 1e-05 s⁻¹
G9U G37C U49C C67A | < 1e-05 s⁻¹ | – | – | < 1e-05 s⁻¹ | < 1e-05 s⁻¹
G9U G40A U54C G60C U69C | < 1e-05 s⁻¹ | – | < 1e-05 s⁻¹ | – | –
G9U G40C | < 1e-05 s⁻¹ | < 1e-05 s⁻¹ | < 1e-05 s⁻¹ | – | < 1e-05 s⁻¹
G9U G41U A42G A64U C71U | < 1e-05 s⁻¹ | – | – | – | –
G9U G43A | < 1e-05 s⁻¹ | < 1e-05 s⁻¹ | – | – | < 1e-05 s⁻¹
G9U G43U | < 1e-05 s⁻¹ | – | < 1e-05 s⁻¹ | < 1e-05 s⁻¹ | < 1e-05 s⁻¹
G9U G63C C67U | < 1e-05 s⁻¹ | – | – | < 1e-05 s⁻¹ | < 1e-05 s⁻¹
G9U G63U | < 1e-05 s⁻¹ | – | < 1e-05 s⁻¹ | < 1e-05 s⁻¹ | < 1e-05 s⁻¹
G9U G66C | < 1e-05 s⁻¹ | < 1e-05 s⁻¹ | < 1e-05 s⁻¹ | – | < 1e-05 s⁻¹
G9U G66U | < 1e-05 s⁻¹ | – | – | – | < 1e-05 s⁻¹

Variant | self-cleavage kobs at 40 uM GlcN6P (glucosamine-6-phosphate [1]) | self-cleavage kobs at 160 uM GlcN6P (glucosamine-6-phosphate [2]) | self-cleavage kobs at 640 uM GlcN6P (glucosamine-6-phosphate [3]) | self-cleavage kobs at 2500 uM GlcN6P (glucosamine-6-phosphate [4]) | self-cleavage kobs at 10000 uM GlcN6P (glucosamine-6-phosphate [5])
G9U U30C A36C | < 1e-05 s⁻¹ | – | < 1e-05 s⁻¹ | < 1e-05 s⁻¹ | –
G9U U31G A36C C71G | < 1e-05 s⁻¹ | – | – | – | < 1e-05 s⁻¹
G9U U31G G32C G62A | < 1e-05 s⁻¹ | – | – | – | –
G9U U45G C50G | < 1e-05 s⁻¹ | < 1e-05 s⁻¹ | < 1e-05 s⁻¹ | – | –
G9U U57C | < 1e-05 s⁻¹ | – | – | – | –
G9U U57C C61G | < 1e-05 s⁻¹ | – | – | – | < 1e-05 s⁻¹
G9U U57G | < 1e-05 s⁻¹ | – | < 1e-05 s⁻¹ | – | < 1e-05 s⁻¹
C10A A12C U31C A36U | < 1e-05 s⁻¹ | – | – | – | –
C10A A14C U45C C68U | < 1e-05 s⁻¹ | – | < 1e-05 s⁻¹ | < 1e-05 s⁻¹ | < 1e-05 s⁻¹
C10A A14U C70A | 5.36e-05 ± 2.5e-05 s⁻¹ | – | – | – | 3.49e-05 ± 1.4e-05 s⁻¹
C10A A33C A64C | < 1e-05 s⁻¹ | – | – | < 1e-05 s⁻¹ | < 1e-05 s⁻¹
C10A A33G | < 1e-05 s⁻¹ | < 1e-05 s⁻¹ | < 1e-05 s⁻¹ | < 1e-05 s⁻¹ | < 1e-05 s⁻¹
C10A A39G G63A | < 1e-05 s⁻¹ | – | – | – | –
C10A A52U | < 1e-05 s⁻¹ | < 1e-05 s⁻¹ | < 1e-05 s⁻¹ | < 1e-05 s⁻¹ | < 1e-05 s⁻¹
C10A C11A G51A | < 1e-05 s⁻¹ | – | – | < 1e-05 s⁻¹ | < 1e-05 s⁻¹
C10A C34U | < 1e-05 s⁻¹ | < 1e-05 s⁻¹ | < 1e-05 s⁻¹ | – | –
C10A C50G G63C | 0.000128 ± 3.3e-05 s⁻¹ | – | – | 7.48e-05 ± 2.8e-05 s⁻¹ | 4.91e-05 ± 1.8e-05 s⁻¹
C10A G13C A52G | < 1e-05 s⁻¹ | – | – | – | –
C10A G13C U55A | < 1e-05 s⁻¹ | – | – | – | –
C10A G13U A36G U46G G59A C70G | < 1e-05 s⁻¹ | – | – | – | –
C10A G13U G37U G60A U65A | < 1e-05 s⁻¹ | – | < 1e-05 s⁻¹ | – | < 1e-05 s⁻¹

— the supplement of paper PMC7125110
